{
  "source": "a collection of fitness landscapes (doi:10.1126/science.1257360)",
  "parents": {"B1": {"name": "PhoQ; a variant is named by its letters at X, in order, P23837 (parent)", "chain": "MKKLLRLFFPLSLRVRFLLATAAVVLVLSLAYGMVALIGYSVSFDKTTFRLLRGESNLFYTLAKWENNKLHVELPENIDKQSPTMTLIYDENGQLLWAQRDVPWLMKMIQPDWLKSNGFHEIEADVNDTSLLLSGDHSIQQQLQEVREDDDDAEMTHSVAVNVYPATSRMPKLTIVVVDTIPVELKSSYMVWSWFIYVLSANLLLVIPLLWVAAWWSLRPIEALAKEVRELEEHNRELLNPATTRELTSLVRNLNRLLKSERERYDKYRTTLTDLTHSLKTPLXXLQXXLRSLRSEKMSVSDAEPVMLEQISRISQQIGYYLHRASMRGGTLLSRELHPVAPLLDNLTSALNKVYQRKGVNISLDISPEISFVGEQNDFVEVMGNVLDNACKYCLEFVEISARQTDEHLYIVVEDDGPGIPLSKREVIFDRGQRVDTLRPGQGVGLAVAREITEQYEGKIVAGESMLGGARMEVIFGRQHSAPKDE"}},
  "note": "Some of the results follow.",
  "data": [
    {"variants_of": "B1", "assay": "enrichment ratio after two sorts for PhoP signalling (ratio (wild type AVST 3.29)); higher = more functional", "details": "with PhoP (E. coli)", "values": [
      {"variant": "YDYY", "enrichment ratio": "≤ 0.25"},
      {"variant": "VEYA", "enrichment ratio": "≤ 0.25"},
      {"variant": "ECKS", "enrichment ratio": "≤ 0.25"},
      {"variant": "AWDF", "enrichment ratio": "≤ 0.25"},
      {"variant": "IVAW", "enrichment ratio": "≤ 0.25"},
      {"variant": "HPQD", "enrichment ratio": "≤ 0.25"},
      {"variant": "HDYL", "enrichment ratio": "≤ 0.25"},
      {"variant": "SKSC", "enrichment ratio": 3.25},
      {"variant": "KRDL", "enrichment ratio": "≤ 0.25"},
      {"variant": "AIQP", "enrichment ratio": "≤ 0.25"},
      {"variant": "DESK", "enrichment ratio": "≤ 0.25"},
      {"variant": "ESCG", "enrichment ratio": "≤ 0.25"},
      {"variant": "PRFN", "enrichment ratio": "≤ 0.25"},
      {"variant": "LFSF", "enrichment ratio": "≤ 0.25"},
      {"variant": "YIRN", "enrichment ratio": "≤ 0.25"},
      {"variant": "VYNL", "enrichment ratio": "≤ 0.25"},
      {"variant": "DFMC", "enrichment ratio": "≤ 0.25"},
      {"variant": "LNWG", "enrichment ratio": "≤ 0.25"},
      {"variant": "FLTQ", "enrichment ratio": "≤ 0.25"},
      {"variant": "NHLK", "enrichment ratio": "≤ 0.25"},
      {"variant": "AWLW", "enrichment ratio": "≤ 0.25"},
      {"variant": "SDID", "enrichment ratio": "≤ 0.25"},
      {"variant": "CSRF", "enrichment ratio": "≤ 0.25"},
      {"variant": "QFGI", "enrichment ratio": "≤ 0.25"},
      {"variant": "QKWV", "enrichment ratio": "≤ 0.25"},
      {"variant": "EPSD", "enrichment ratio": "≤ 0.25"},
      {"variant": "PRRE", "enrichment ratio": "≤ 0.25"},
      {"variant": "NAPL", "enrichment ratio": "≤ 0.25"},
      {"variant": "FPMN", "enrichment ratio": "≤ 0.25"},
      {"variant": "VLYF", "enrichment ratio": "≤ 0.25"},
      {"variant": "GVPA", "enrichment ratio": "≤ 0.25"},
      {"variant": "PRHM", "enrichment ratio": "≤ 0.25"},
      {"variant": "FLVT", "enrichment ratio": "≤ 0.25"},
      {"variant": "YGPH", "enrichment ratio": "≤ 0.25"},
      {"variant": "MHHN", "enrichment ratio": "≤ 0.25"},
      {"variant": "KIGF", "enrichment ratio": "≤ 0.25"},
      {"variant": "HYVD", "enrichment ratio": "≤ 0.25"},
      {"variant": "TESM", "enrichment ratio": 30},
      {"variant": "MQQF", "enrichment ratio": "≤ 0.25"},
      {"variant": "HEER", "enrichment ratio": "≤ 0.25"},
      {"variant": "DWSN", "enrichment ratio": "≤ 0.25"},
      {"variant": "PNSL", "enrichment ratio": "≤ 0.25"},
      {"variant": "GQWR", "enrichment ratio": "≤ 0.25"},
      {"variant": "SNRS", "enrichment ratio": "≤ 0.25"},
      {"variant": "IYDS", "enrichment ratio": "≤ 0.25"},
      {"variant": "QTIM", "enrichment ratio": "≤ 0.25"},
      {"variant": "YWIH", "enrichment ratio": "≤ 0.25"},
      {"variant": "VREM", "enrichment ratio": "≤ 0.25"},
      {"variant": "VGLS", "enrichment ratio": 5.47},
      {"variant": "YGHI", "enrichment ratio": "≤ 0.25"},
      {"variant": "LVRW", "enrichment ratio": "≤ 0.25"},
      {"variant": "SQWK", "enrichment ratio": "≤ 0.25"},
      {"variant": "TLFQ", "enrichment ratio": "≤ 0.25"},
      {"variant": "QGYM", "enrichment ratio": 23.9},
      {"variant": "KFKQ", "enrichment ratio": "≤ 0.25"},
      {"variant": "YFCR", "enrichment ratio": 0.754},
      {"variant": "AQDH", "enrichment ratio": "≤ 0.25"},
      {"variant": "IDRN", "enrichment ratio": "≤ 0.25"},
      {"variant": "MGNF", "enrichment ratio": "≤ 0.25"},
      {"variant": "EQPR", "enrichment ratio": "≤ 0.25"},
      {"variant": "GWVI", "enrichment ratio": "≤ 0.25"},
      {"variant": "FCRD", "enrichment ratio": "≤ 0.25"},
      {"variant": "LYEI", "enrichment ratio": "≤ 0.25"},
      {"variant": "QPDD", "enrichment ratio": "≤ 0.25"},
      {"variant": "KAVM", "enrichment ratio": "≤ 0.25"},
      {"variant": "NVRT", "enrichment ratio": "≤ 0.25"},
      {"variant": "HRWK", "enrichment ratio": "≤ 0.25"},
      {"variant": "FDDD", "enrichment ratio": "≤ 0.25"},
      {"variant": "WQRN", "enrichment ratio": "≤ 0.25"},
      {"variant": "EVCS", "enrichment ratio": "≤ 0.25"},
      {"variant": "VWDV", "enrichment ratio": "≤ 0.25"},
      {"variant": "PFQQ", "enrichment ratio": "≤ 0.25"},
      {"variant": "AALP", "enrichment ratio": "≤ 0.25"},
      {"variant": "DTQN", "enrichment ratio": "≤ 0.25"},
      {"variant": "IQHK", "enrichment ratio": "≤ 0.25"},
      {"variant": "QDEN", "enrichment ratio": "≤ 0.25"},
      {"variant": "DNRV", "enrichment ratio": "≤ 0.25"},
      {"variant": "MDST", "enrichment ratio": "≤ 0.25"},
      {"variant": "RTAI", "enrichment ratio": "≤ 0.25"},
      {"variant": "WDMQ", "enrichment ratio": "≤ 0.25"},
      {"variant": "RSTY", "enrichment ratio": "≤ 0.25"},
      {"variant": "PMVG", "enrichment ratio": "≤ 0.25"},
      {"variant": "MMLI", "enrichment ratio": "≤ 0.25"},
      {"variant": "SDFQ", "enrichment ratio": "≤ 0.25"},
      {"variant": "FSIM", "enrichment ratio": 11.9},
      {"variant": "IWCC", "enrichment ratio": "≤ 0.25"},
      {"variant": "IDNP", "enrichment ratio": "≤ 0.25"},
      {"variant": "LSLM", "enrichment ratio": 7.04},
      {"variant": "FCWR", "enrichment ratio": "≤ 0.25"},
      {"variant": "YIEL", "enrichment ratio": "≤ 0.25"},
      {"variant": "DYPV", "enrichment ratio": "≤ 0.25"},
      {"variant": "AMDF", "enrichment ratio": "≤ 0.25"},
      {"variant": "TNTW", "enrichment ratio": "≤ 0.25"},
      {"variant": "KVTW", "enrichment ratio": "≤ 0.25"},
      {"variant": "ADHM", "enrichment ratio": "≤ 0.25"},
      {"variant": "TCSV", "enrichment ratio": 17.7},
      {"variant": "ALIR", "enrichment ratio": "≤ 0.25"},
      {"variant": "PFGT", "enrichment ratio": "≤ 0.25"},
      {"variant": "GSCR", "enrichment ratio": "≤ 0.25"},
      {"variant": "DGWI", "enrichment ratio": "≤ 0.25"},
      {"variant": "TVLR", "enrichment ratio": "≤ 0.25"},
      {"variant": "NFRH", "enrichment ratio": "≤ 0.25"},
      {"variant": "VHDG", "enrichment ratio": "≤ 0.25"},
      {"variant": "DGIV", "enrichment ratio": "≤ 0.25"},
      {"variant": "QEAN", "enrichment ratio": 2.7},
      {"variant": "HMGA", "enrichment ratio": "≤ 0.25"},
      {"variant": "MLYS", "enrichment ratio": "≤ 0.25"},
      {"variant": "EHPL", "enrichment ratio": "≤ 0.25"},
      {"variant": "GKRT", "enrichment ratio": "≤ 0.25"},
      {"variant": "EEEL", "enrichment ratio": "≤ 0.25"},
      {"variant": "YVII", "enrichment ratio": "≤ 0.25"},
      {"variant": "WDWI", "enrichment ratio": "≤ 0.25"},
      {"variant": "LVNN", "enrichment ratio": "≤ 0.25"},
      {"variant": "YVLY", "enrichment ratio": "≤ 0.25"},
      {"variant": "MNII", "enrichment ratio": "≤ 0.25"},
      {"variant": "WWIS", "enrichment ratio": "≤ 0.25"},
      {"variant": "HRVF", "enrichment ratio": "≤ 0.25"},
      {"variant": "HYHR", "enrichment ratio": "≤ 0.25"},
      {"variant": "CIYF", "enrichment ratio": "≤ 0.25"},
      {"variant": "YTED", "enrichment ratio": "≤ 0.25"},
      {"variant": "SWQL", "enrichment ratio": "≤ 0.25"},
      {"variant": "SLFV", "enrichment ratio": "≤ 0.25"},
      {"variant": "ECHQ", "enrichment ratio": "≤ 0.25"},
      {"variant": "SFKH", "enrichment ratio": "≤ 0.25"},
      {"variant": "LGKI", "enrichment ratio": "≤ 0.25"},
      {"variant": "YWQE", "enrichment ratio": "≤ 0.25"},
      {"variant": "AWKR", "enrichment ratio": "≤ 0.25"},
      {"variant": "GEWN", "enrichment ratio": "≤ 0.25"},
      {"variant": "DHAF", "enrichment ratio": "≤ 0.25"},
      {"variant": "KGAR", "enrichment ratio": "≤ 0.25"},
      {"variant": "LQCL", "enrichment ratio": "≤ 0.25"},
      {"variant": "LHQM", "enrichment ratio": "≤ 0.25"},
      {"variant": "FKNR", "enrichment ratio": 1.62},
      {"variant": "AIYW", "enrichment ratio": "≤ 0.25"},
      {"variant": "ATPE", "enrichment ratio": "≤ 0.25"},
      {"variant": "LHRE", "enrichment ratio": "≤ 0.25"},
      {"variant": "KSAP", "enrichment ratio": "≤ 0.25"},
      {"variant": "PRQV", "enrichment ratio": "≤ 0.25"},
      {"variant": "QMGN", "enrichment ratio": "≤ 0.25"},
      {"variant": "LQCI", "enrichment ratio": "≤ 0.25"},
      {"variant": "TMNF", "enrichment ratio": 14.7},
      {"variant": "IFRV", "enrichment ratio": "≤ 0.25"},
      {"variant": "MCMI", "enrichment ratio": 4.33},
      {"variant": "SNQN", "enrichment ratio": "≤ 0.25"},
      {"variant": "NSKF", "enrichment ratio": "≤ 0.25"},
      {"variant": "SNQS", "enrichment ratio": 4.98},
      {"variant": "VFER", "enrichment ratio": "≤ 0.25"},
      {"variant": "ADNN", "enrichment ratio": "≤ 0.25"},
      {"variant": "IYGI", "enrichment ratio": "≤ 0.25"},
      {"variant": "HLSK", "enrichment ratio": "≤ 0.25"},
      {"variant": "QGDG", "enrichment ratio": 11.8},
      {"variant": "QQYN", "enrichment ratio": "≤ 0.25"},
      {"variant": "SGSG", "enrichment ratio": 8.15}
    ]}
  ]
}
